# From the supplement of paper PMC11417369
# ± gives the standard deviation of the averaged measurements. The list shows a part of the results.
# System: PfAP2-I AP2 domain 3 (GST-tagged)
# Test: gcPBM binding intensity (ln(normalized median fluorescence intensity)); higher = stronger DNA binding
# Outline: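 Plasmodium falciparum DNA-binding domains carrying a GST tag were expressed in E. coli and applied for 1 h, at about 25 μg on average, to an Agilent 4 × 180k array. The array held primer-extended double-stranded 36-bp intergenic genomic probes together with negative controls, and binding took place in 1× PBS with 1% milk, 0.2 mg/ml BSA, 0.5% salmon testes DNA and 0.03% Triton X-100. An Alexa488 anti-GST antibody detected bound protein, and the array was scanned at 488 nm. Binding intensity is taken as the highest Masliner-normalised natural-log median intensity across replicate spots of either probe orientation.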
row,Sequence,gcPBM binding intensity (ln)
1,AGACATTAATGAAGGTGTACATATATTTGACAGAAT [XGTACX_site655],8.34 ± 0.68
2,TCCCTAGTATACCTTAGTACATATATTATTTTGCAC [XGTACX_site2174],10.4 ± 0.66
3,CAGGAGAGTAAAAGAGTGCGAATTATTATTTTGGAG,8.63 ± 0.22
4,TCATTCATATGTTACACACACACACGCACATAAAAA [CACACA_site7514],8.59 ± 0.22
5,TATATAATATAATTGACATGCAACCATTTTCGTGAA [TGCATGCA_site458],7.64 ± 0.59
6,AAGTTGGAAAGGTTATGTACTTATTTTTTAAAATAA [XGTACX_site204],7.71 ± 0.36
7,TATTTTTATTTAGGACGTACAAAAATAAATCATATT [XGTACX_site1448],8.01 ± 0.35
8,TTAAAAATATATATAACACACACATAATATATATAT [CACACA_site8811],8.93 ± 0.33
9,TTTTTTTTTCCCGTAAATATTGAGACAACCATAATG [CACACA_negctrl_site41],7.86 ± 0.61
10,TTAGAAACATTGAAAGCATGCAATATTACTTTATAC [TGCATGCA_site522],7.75 ± 0.6
11,TCCTTATATTTGCACACACACACAAGAAAATGAAAA [CACACA_site6613],10.3 ± 0.54
12,TATAAATATTACGGTAGTACTATACATATATATAAT [XGTACX_site7442],7.78 ± 0.53
13,CATATAAAAAGACACACACACACATATATATATATA [CACACA_site940],9.66 ± 0.5
14,ATATATTTTCAAAAAAGTAAATCAAAATAAATATAT [TGCATGCA_negctrl_site319],7.78 ± 0.69
15,TCCAAATACAACTACACACAAACAAAAATTATATAT [CACACA_site881],7.84 ± 0.49
16,ATGGTTTAGTTATATACACACTCGAAAATAACGACA [CACACA_site7520],7.88 ± 0.49
17,TATAAAAATATATTTACACACTATATATATCGAAAG [CACACA_site1700],7.71 ± 0.38
18,TTAAAATTAATTCACCAGTATTAAAATAAAAACGAA [CACACA_negctrl_site1428],8.04 ± 0.26
19,AAATAAAATTTTATGTGTACGCAAAAAGTTGTAAGC [XGTACX_site8911],8.46 ± 0.62
20,AAAATTTTTCTTAAAGCATGCACAATTAAGAAGACG [TGCATGCA_site883],8.49 ± 0.73
21,TTTTTTTTAAGAGATAGTACATAAATATTATAATAT [XGTACX_site4685],7.82 ± 0.42
22,AAGATATATATAGAAAGTACTTATATTTGTATAATT [XGTACX_site8855],7.83 ± 0.44

row,Sequence,gcPBM binding intensity (ln)
1,ATATTAATATATATGTTTTATTACCATTTTATGTAT [CACACA_negctrl_site1761],7.7 ± 0.59
2,AATAAATAAATATATACACACATATATATATAATAT [CACACA_site921],7.5 ± 0.47
3,TGAAAAAATATAAAATATAAAATAAAAAATATAAAA [GTGCAC_negctrl_site536],7.43 ± 0.67
4,TACAATCTAAAATACACACACACAAACATATATTTA [CACACA_site3702],7.68 ± 0.36
5,TCTACAATTATAATTACACACTATAAAAAAGAAAGA [CACACA_site2984],7.96 ± 0.35
6,AAAAATAGGAACCAATATCCAACGTGACTTTATAAT [CACACA_negctrl_site1011],7.68 ± 0.81
7,ATTTTTTTTTTTTTTTTTTTTTTTTTTTGATTTGTG [CACACA_negctrl_site1391],7.53 ± 0.51
8,AAAATAATTATGAATTGTACAGGTTTTTTTTTTTTT [XGTACX_site220],7.86 ± 0.42
9,AAAAAATTTTTAAGCACACACATAGATAATATATAT [CACACA_site1555],8.78 ± 0.13
10,GGAAAAAAAAAAAAAAAACACACGGTACATTCAAAC [CACACA_site2715],7.88 ± 0.78
11,ATGTCAAATTTTTGTGCACACATATATAGTTATTAT [CACACA_site2242],10.78 ± 0.028
12,ATAAAAATTGATTATACACACGCGCACCCACAACAA [CACACA_site3536],9.05 ± 0.24
13,TATTTATAAATTTACACACACACATGGGAACATAAA [CACACA_site5111],8.18 ± 0.45
14,TAAGGATAAATAAAATGAAATGAAATAAATAAATGA [XGTACX_negctrl_site539],7.54 ± 0.57
15,TATATATATCAGCAATGTACACAATGCATATTATAT [XGTACX_site4836],7.92 ± 0.61
16,TTATTTTATTTTAAAAAAAACAATATAAATTCAAAG [GTGCAC_negctrl_site57],7.57 ± 0.3
17,ATTATACAAAATGGTAAGGAAAAGGAAATTTTTTTT [CACACA_negctrl_site1090],7.5 ± 0.76
18,CAATATTATATATATACACACATAATCTGTAAAAAC [CACACA_site1068],7.8 ± 0.5
19,AAAAAAAAAAATATCACACACACATAAATATAAACA [CACACA_site7138],7.67 ± 0.67
20,CATATATATATATATACACACATATATATTTTCTTT [CACACA_site1457],8.06 ± 0.47
21,AAAGTAGGCTTATATGCACACTTTGAAATATTATAA [CACACA_site5117],9.31 ± 0.45
22,TTTATATGCAATTAAGTGCATAAGAAAAAAAAAGGA [GTGCAC_site9966],10.5 ± 0.27

row,Sequence,gcPBM binding intensity (ln)
1,TTATAAAATAAACTTACACACATGAAATATTATAGT [CACACA_site7000],7.74 ± 0.5
2,CAAACAAATTGTGAAACACACATATTTATATTTATA [CACACA_site7030],7.42 ± 0.35
3,TCATAGCACAAAAAATGTACTTATTATTTAATATTT [XGTACX_site5687],7.79 ± 0.35
4,ATGTGATAATTTAATAGTACATAACAGTTTAACAAT [XGTACX_site5854],7.93 ± 0.76
5,TTATAATAAATATTTATTATATATAATATATATTAC [CACACA_negctrl_site1802],7.58 ± 0.4
6,TATATTATATATTTATGTACGTATTTGTAAAAAGAT [XGTACX_site3444],8.36 ± 0.23
7,TTTTTTATTAAATATATATAATAATAATAATTTGTA [CACACA_negctrl_site1719],7.35 ± 0.4
8,TTTGTTTTATGTGGTTGTACACAAATACAATTTAAA [XGTACX_site5156],7.92 ± 0.15
9,GTTTCCTTAATATTCACACACATATCTATAATATAT [CACACA_site6959],8.22 ± 0.76
10,ATAATAATTATATCAGTGCGCATATATATTTATTTA,9.41 ± 0.72
11,GATCATAATATTTAAAAGAATATATATAAAAAGGAA [XGTACX_negctrl_site310],7.83 ± 0.54
12,ATGGTATCTTTTAGAAGTACATCATGATAATAATTT [XGTACX_site5544],7.64 ± 0.45
13,GTATTAATTTATATATGTACATATGTGATATATATA [XGTACX_site5825],8.13 ± 0.31
14,CAAAATTAATAAGTCACACACACATATATAATATAT [CACACA_site798],7.7 ± 0.4
15,TATATTTATACAATATGTACATATTATATATATATA [XGTACX_site3098],8.83 ± 0.042
16,TATAAAAATATATGCACACAAATAAAAAATTATATA [CACACA_site3629],9.05 ± 0.42
17,ATTTAATAACGGCATGCATGTCCTTATATAAATTTA [TGCATGCA_site1012],7.79 ± 0.69
18,TGAATTGTAATTTATAATATACGTGGTTTCTACTTA [CACACA_negctrl_site559],7.33 ± 0.64
19,CCTTACCAAATAATATGTACACATTTAATGTTATAT [XGTACX_site7840],8.14 ± 0.19
20,TATTATATATTATATAGTACATATTTATGTAAGAGG [XGTACX_site3099],8.03 ± 0.42
21,TATCAGTATACAACAACACACATAATGTTTGTCATC [CACACA_site2980],7.65 ± 0.48
22,CACTTAAAAAAAATACGTACACATATATATATATAT [XGTACX_site2054],9.53 ± 0.32

row,Sequence,gcPBM binding intensity (ln)
1,CAAAAATAAATATAAACACACAATAAATAAATAAAT [CACACA_site891],7.79 ± 1
2,AAAAAAAAAACAAATGCATGTAATATAAGAATTACA [TGCATGCA_site908],7.45 ± 0.6
3,ACTTATAATATTTAGTGTACATATTGTGACTAATAC [XGTACX_site1508],8.07 ± 0.49
4,ATTTTAAAAAATTAATGTACTTAATTAATACTGAAA [XGTACX_site7702],7.59 ± 0.25
5,TATTTATAAATTTACACACACACATGTGAACATAAA [CACACA_site1909],7.89 ± 0.48
6,TATCAAAAAAAAAGTAGTACGATAATAGTTTCCCAA [XGTACX_site1812],7.87 ± 0.18
7,CACCCATACACATACAAACACACATTCTATATATAT [CACACA_site1600],8.35 ± 0.33
8,GAAATTAAATGACATACACACTATATTATATATTTT [CACACA_site5693],7.67 ± 0.51
9,TAGATAGATTAAAATACATGCATATTATTAAAAAAT [TGCATGCA_site739],7.68 ± 0.57
10,AATCATAAACATTATGCACACAAAAATAAAAAAAAA [CACACA_site8289],9.81 ± 0.11
11,TATCTTCAATGTGAAAGTACTTAAATTGTTATAAAA [XGTACX_site2586],7.75 ± 0.52
12,ATTTAATGTATTTTGCGTACGAATTATTTTATTTCA [XGTACX_site7331],7.93 ± 0.49
13,AGCATAAAAATGATATGTACATATATATATATATAT [XGTACX_site2836],9.34 ± 0.43
14,CATACATACATACATACACACATACATATGTATATA [CACACA_site7216],8.85 ± 0.59
15,TGGAATAAAAAAAGGAGTACAATTAATTATTCTTAA [XGTACX_site8299],7.92 ± 0.092
16,TATATATATATATATGTGCACATATTTATATGTTTT,9.85 ± 0.22
17,GTTGTGTAATTCGTAACACACATAAAATATATATAA [CACACA_site6059],7.76 ± 0.48
18,ATATAGTTCGATATAGTTAGTATGAATTGAAAAATA [CACACA_negctrl_site1826],7.43 ± 0.54
19,AAAAAAATAAAACACACACACAAAAAAATAAAAATA [CACACA_site465],7.79 ± 0.76
20,TTTTTAAAATATTTAACACACAATTTTAATGCATAA [CACACA_site6036],8.8 ± 0.11
21,TTTTCATTTTTTTTTTTTTTTTTTTTTCTTTTTTTT [CACACA_negctrl_site1312],7.43 ± 0.31
22,ATTTCTTTAATATACACACACCAAAACAAAAAAAAA [CACACA_site6416],8.21 ± 0.42
